Assay results published in publication PMC4642984.
No constants are given. Whether binding was seen depends on the method and setting. In cells and extracts the contact can be indirect. Some binding calls cover weakened binding; strength is not graded here. Blank lines part the entries; values can stand above or below the substance they belong to.

The chains behind the UniProt entries cited, without tags or fusion partners. Where a name states a change or a piece, a line headed by the entry shows the natural chain unless it says otherwise. A line that says so, or that is headed by a name, gives the form on record, which may keep a tag or linker.
ELucC-BMAL1 (Q9WTL8-2, form named): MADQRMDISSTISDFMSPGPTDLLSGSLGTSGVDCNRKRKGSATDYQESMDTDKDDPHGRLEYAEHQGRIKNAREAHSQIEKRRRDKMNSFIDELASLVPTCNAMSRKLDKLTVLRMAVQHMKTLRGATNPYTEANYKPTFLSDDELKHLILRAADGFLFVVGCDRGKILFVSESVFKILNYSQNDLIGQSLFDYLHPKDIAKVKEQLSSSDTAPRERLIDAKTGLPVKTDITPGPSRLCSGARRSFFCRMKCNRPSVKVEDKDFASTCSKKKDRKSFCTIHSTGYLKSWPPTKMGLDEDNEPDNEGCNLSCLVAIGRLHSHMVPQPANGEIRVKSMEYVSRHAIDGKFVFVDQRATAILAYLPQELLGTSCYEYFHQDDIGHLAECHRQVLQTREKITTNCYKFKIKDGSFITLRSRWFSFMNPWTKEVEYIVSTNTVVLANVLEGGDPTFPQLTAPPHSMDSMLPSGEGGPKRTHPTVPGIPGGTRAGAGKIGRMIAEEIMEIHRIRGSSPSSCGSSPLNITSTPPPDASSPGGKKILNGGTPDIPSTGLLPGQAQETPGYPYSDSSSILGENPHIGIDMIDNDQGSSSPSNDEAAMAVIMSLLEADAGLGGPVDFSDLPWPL
ElucC-mBMAL1-K537R (Q9WTL8-2, form named): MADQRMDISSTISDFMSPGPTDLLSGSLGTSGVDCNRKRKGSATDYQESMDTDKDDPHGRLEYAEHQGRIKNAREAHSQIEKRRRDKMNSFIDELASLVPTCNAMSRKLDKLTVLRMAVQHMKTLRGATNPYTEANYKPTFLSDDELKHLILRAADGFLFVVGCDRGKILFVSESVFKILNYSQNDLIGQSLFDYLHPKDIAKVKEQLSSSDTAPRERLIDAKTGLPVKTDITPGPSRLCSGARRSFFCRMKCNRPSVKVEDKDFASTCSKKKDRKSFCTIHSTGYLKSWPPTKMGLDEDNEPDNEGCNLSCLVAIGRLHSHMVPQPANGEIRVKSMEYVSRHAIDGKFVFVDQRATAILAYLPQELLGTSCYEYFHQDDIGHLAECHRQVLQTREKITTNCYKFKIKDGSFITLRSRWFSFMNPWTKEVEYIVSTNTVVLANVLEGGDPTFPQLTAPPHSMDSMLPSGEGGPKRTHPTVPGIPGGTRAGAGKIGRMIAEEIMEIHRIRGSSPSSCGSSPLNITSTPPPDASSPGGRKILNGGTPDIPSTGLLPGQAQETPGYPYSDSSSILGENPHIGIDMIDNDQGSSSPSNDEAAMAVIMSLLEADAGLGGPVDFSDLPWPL
UniProt P67870: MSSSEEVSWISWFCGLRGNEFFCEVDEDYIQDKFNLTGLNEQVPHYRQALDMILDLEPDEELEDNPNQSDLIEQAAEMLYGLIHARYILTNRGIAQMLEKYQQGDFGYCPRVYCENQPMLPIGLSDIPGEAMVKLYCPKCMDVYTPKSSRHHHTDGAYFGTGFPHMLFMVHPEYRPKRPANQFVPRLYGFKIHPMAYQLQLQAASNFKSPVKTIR
UniProt P68400: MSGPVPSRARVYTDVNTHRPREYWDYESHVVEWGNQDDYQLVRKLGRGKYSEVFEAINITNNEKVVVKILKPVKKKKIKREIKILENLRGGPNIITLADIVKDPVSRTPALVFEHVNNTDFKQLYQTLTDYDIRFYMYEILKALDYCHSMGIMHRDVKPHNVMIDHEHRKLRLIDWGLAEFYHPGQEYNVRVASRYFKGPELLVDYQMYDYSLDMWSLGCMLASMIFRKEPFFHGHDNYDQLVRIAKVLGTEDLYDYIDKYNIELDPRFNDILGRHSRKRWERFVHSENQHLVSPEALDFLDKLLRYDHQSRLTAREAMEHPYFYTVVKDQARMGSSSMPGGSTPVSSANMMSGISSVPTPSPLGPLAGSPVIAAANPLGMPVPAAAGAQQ
UniProt P67871: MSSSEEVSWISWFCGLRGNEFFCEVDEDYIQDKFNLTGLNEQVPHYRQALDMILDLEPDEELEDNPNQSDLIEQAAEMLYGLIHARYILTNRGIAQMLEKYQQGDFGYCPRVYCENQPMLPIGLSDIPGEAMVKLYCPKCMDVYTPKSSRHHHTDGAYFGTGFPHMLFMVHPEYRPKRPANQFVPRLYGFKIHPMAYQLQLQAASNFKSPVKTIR

Tests used:
[1] = target: Myc-BMAL1-WT (UniProt Q9WTL8); experiment: co-IP; Myc-BMAL1 IP from supernatants of Dex-synchronized Bmal1-/- MEFs stably expressing Myc-BMAL1-WT, -S90A or -K537R, harvested 22 h after treatment; immunoblot for CK2β, CRY1/2 and CLOCK
[2] = target: BMAL1 (mouse (endogenous in MEFs)) (UniProt Q9WTL8); experiment: co-IP; endogenous proteins from lysates of mouse embryonic fibroblasts (WT; also BMAL1-deficient, SIRT1KO, and CRYdKO stably expressing Myc-CRY1; unsynchronised or Dex-synchronised, harvested at intervals); IP with anti-BMAL1, anti-CK2α, anti-CK2β or anti-CRY1/2, immunoblot
[3] = target: BMAL1 (mouse (endogenous in MEFs)) (UniProt Q9WTL8); experiment: co-IP; lysates of CRYdKO (Cry1-/-/Cry2-/-) mouse embryonic fibroblasts; BMAL1-IP and CK2β-IP, immunoblot
[4] = target: GST-CK2β (UniProt P67870); experiment: pull-down; purified bacterially expressed GST-CK2 subunits mixed 1:1 with in vitro translated 35S-methionine labeled clock proteins, precipitated with glutathione Sepharose beads, SDS-PAGE and autoradiography; only the target purified
[5] = target: GST-CK2α (UniProt P68400); experiment: as above
[6] = target: McLuc1-BMAL1 (mouse) (UniProt Q9WTL8); experiment: split reporter; Split Luc complementation in living Dex-synchronized U-2OS cells expressing ELucN-CK2β and McLuc1-BMAL1; real-time bioluminescence over circadian time
[7] = target: ElucC-mBMAL1-K537R (mouse) (UniProt Q9WTL8); experiment: split reporter; Split Luc complementation in living Cos7 cells transfected with ELucN-CK2β and ELucC-BMAL1 (WT or mutant) together with pcDNA, Myc-HA-CRY1, Myc-CRY2 or FLAG-CRY1 (WT or Cd1-4); real-time bioluminescence, averaged peak values
[8] = target: ELucC-BMAL1 (mouse) (UniProt Q9WTL8); experiment: as above

binding [1]: binds | binding [2]: binds
Substance: CK2β (from UniProt P67871 1-215)
binding [3]: no binding (condition: in CRY1/2-deficient (CRYdKO) MEFs)

binding [4]: binds | binding [5]: binds
Substance: in vitro translated 35S-methionine labeled BMAL1 (from UniProt Q9WTL8-2 1-625)

binding [6]: binds | binding [7]: binds | binding [8]: binds
Substance: ELucN-CK2β (from UniProt P67870 1-215)
